Test results published in article PMC6919601, “Identification of Plasmodium dipeptidyl aminopeptidase allosteric inhibitors by high throughput screening” (PLoS ONE, 2019).
Among all 110,000 compounds or so, about 230 (0.21%) showed an effect of 50% or more. The list shows a part of the results.

Molecular target: DPAP1 (Plasmodium falciparum, UniProt Q8IIJ9)
Assay: primary screen, percent inhibition; read by cleavage of a fluorogenic dipeptide substrate; higher = more effect of the substance
Parameters: species or system P. falciparum D10 trophozoite lysates; single well
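Note: 30 min substrate incubation versus DMSO and 10 µM JCP410 controls.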

DPAP1, sequence (Q8IIJ9 whole entry, looked up): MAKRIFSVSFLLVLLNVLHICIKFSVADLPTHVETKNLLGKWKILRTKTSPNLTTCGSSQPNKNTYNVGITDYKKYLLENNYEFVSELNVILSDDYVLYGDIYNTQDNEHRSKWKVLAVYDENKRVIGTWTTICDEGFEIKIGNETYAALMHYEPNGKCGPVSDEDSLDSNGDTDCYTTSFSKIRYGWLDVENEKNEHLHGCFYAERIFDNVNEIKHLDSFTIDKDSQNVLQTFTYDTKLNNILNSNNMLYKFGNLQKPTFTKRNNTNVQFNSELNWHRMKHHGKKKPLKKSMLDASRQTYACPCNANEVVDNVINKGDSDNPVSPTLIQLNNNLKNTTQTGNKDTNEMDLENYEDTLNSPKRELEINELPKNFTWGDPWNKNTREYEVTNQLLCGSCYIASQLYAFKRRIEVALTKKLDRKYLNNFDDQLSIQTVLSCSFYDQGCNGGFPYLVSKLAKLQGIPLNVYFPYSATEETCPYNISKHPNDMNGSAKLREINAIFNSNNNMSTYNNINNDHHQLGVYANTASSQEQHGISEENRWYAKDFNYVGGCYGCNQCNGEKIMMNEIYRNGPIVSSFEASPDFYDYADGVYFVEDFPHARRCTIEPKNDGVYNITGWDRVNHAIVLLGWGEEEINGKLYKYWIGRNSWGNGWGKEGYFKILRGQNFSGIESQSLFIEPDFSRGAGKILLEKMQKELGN

Row | Structure (SMILES) | % Inhibition @ 10 uM
1 | COc1ccc2c(c1)C(=O)C(C1(O)C(=O)N(C)c3ccccc31)CC2 (stereo not shown) | 7.85%
2 | COc1ccc(/N=C2/S/C(=C\c3cc(Br)ccc3O)C(=O)N2C)cc1 | 1.05%
3 | Cc1ccc(C(=O)C2=C(O)C(=O)N(CC3CCCO3)C2c2ccc(C(C)(C)C)cc2)o1 (stereo not shown) | 4.31%
4 | CCOc1ccc2n[se]nc2c1 | 3.47%
5 | CC(C)(C)OC(=O)N1CCC(c2c(C(=O)N3CCc4ccccc4C3)cnn2-c2ccccc2)CC1 | -0.887%
6 | O=C1C2C3CCC(C3)C2C(=O)N1c1ccc(F)cc1 (stereo not shown) | -2.34%
7 | CCN(CC)c1ccc(NC(=O)Nc2ccc(Cl)cc2)cc1 | -0.0369%
8 | CCOc1ccc2nc(Nc3nc4ccccc4nc3Cl)sc2c1 | -2.05%
9 | COc1ccc(Cl)cc1NC(=O)COc1ccc(S(=O)(=O)NC2CCCC2)cc1 | 2.5%
10 | COc1ccc(-c2cc(C(=O)NCc3cccnc3)c3ccccc3n2)cc1 | 1.27%
11 | COc1ccc(-c2cc3c4cccn4ccn3c2)cc1 | -0.744%
12 | Cc1cccc(NC(=O)C2CC(=O)N(c3ccc(Cl)cc3)C2)c1 (stereo not shown) | -0.999%
13 | COc1ccc(Br)cc1CNC(=O)C1CCCN(S(=O)(=O)N2CCOCC2)C1 (stereo not shown) | 4.89%
14 | O=C(O)c1cccc(S(=O)(=O)N2Cc3ccccc3C2)c1 | 3.16%
15 | CCOC(=O)CNC(=O)NCc1ccccc1 | -4.35%
16 | Cc1ccccc1N1C(=O)C(=Cc2ccc3c(c2)OCO3)C(=O)N(c2ccccc2C)C1=S | 15.1%
17 | CC(=O)NS(=O)(=O)c1ccc(NC(=O)c2ccncc2)cc1 | 2.03%
18 | CC(C)NS(=O)(=O)c1ccc(OCC(=O)NCc2cccnc2)cc1 | -2.9%
19 | COCCNC(=O)c1cc2nc(-c3ccco3)cc(C(F)(F)Cl)n2n1 | -3.77%
20 | CC1CCN(c2ccc3nnc(CCC(=O)O)n3n2)CC1 | 4.01%
21 | COc1ccc(N(CC(=O)Nc2ccc(F)cc2)S(C)(=O)=O)cc1 | -1.95%
22 | Cc1ccc(C)c(S(=O)(=O)NCc2ccc(C(=O)Nc3cccnc3)cc2)c1 | -5.56%

Row | Structure (SMILES) | % Inhibition @ 10 uM
23 | CCOC(=O)c1c(NC(=O)c2cc(-c3ccco3)on2)sc2c1CCCC2 | 1.82%
24 | c1ccc(CNc2ccc3c[nH]nc3c2)cc1 | 1.29%
25 | O=C(O)c1ccc(Nc2ccc3ccccc3n2)cc1 | 3.44%
26 | Oc1ccc(Br)cc1C1NCCc2c1[nH]c1ccccc21 (stereo not shown) | -3.92%
27 | COC1CCCCC1NCCc1ccc(F)cc1 (stereo not shown) | 0.177%
28 | CCOc1ccc(CCNC(=O)C2CCN(S(C)(=O)=O)CC2)cc1OCC | -1.56%
29 | C=CCOc1cccc(CNC(C)(C)CO)c1 | 6.98%
30 | COc1cccc(C(=O)Nc2sc(C)c(C)c2C#N)c1 | 0.343%
31 | CC1(c2ccc(O)cc2)NC(=O)NC1=O (stereo not shown) | -0.424%
32 | COCCNC(=O)CCc1nc(-c2ccc(Cl)cc2)no1 | -3.12%
33 | COc1ccc(OC)c(C2C(C#N)=C(N)OC3=C2C(=O)CC(c2ccccc2)C3)c1 (stereo not shown) | 5.93%
34 | Cc1cc(/C=C2\SC(=O)NC2=O)c(C)n1-c1ccc(N(C)C)cc1 | 0.392%
35 | CC(C)C[C@H](NC(=O)C1CCN(C(=O)CSCCCC(P(=O)(O)O)P(=O)(O)O)CC1)C(=O)N[C@@H](CCc1ccccc1)C(=O)COc1ccccc1 | 3.1%
36 | Cc1ccc(-c2csc(/C(C#N)=C\c3cccc(F)c3)n2)cc1 | 0.912%
37 | O=C(O)c1cccc(NC(=O)c2ccc([N+](=O)[O-])cc2C(=O)O)c1 | -8.11%
38 | COC(=O)c1nn2c(C(F)(F)F)cc(-c3cccs3)nc2c1Cl | -2.2%
39 | CC1(C)CC(=O)C2=C(C1)C(c1ccc(Cl)cc1Cl)c1c(O)nc(O)nc1N2 (stereo not shown) | 7.84%
40 | O=C(CN(c1ccc2c(c1)OCCO2)S(=O)(=O)c1ccccc1)N1CCCCCC1 | -4.49%
41 | O=C(Nc1ccc(O)cc1)c1nn2c(c1Cl)NC(c1cccs1)CC2C(F)(F)F (stereo not shown) | -2.87%
42 | N#CC1=C(N)Oc2[nH]nc(-c3ccccc3Cl)c2C1c1ccccc1 (stereo not shown) | 2.68%
43 | O=S(=O)(c1ccc2c(c1)OCCO2)N1CCOCC1 | 11.3%
44 | CC1=C(C#N)C(=O)N(CCCO)C(=O)/C1=C\c1ccc(-c2cccc(C(=O)O)c2)o1 | 5.37%

Row | Structure (SMILES) | % Inhibition @ 10 uM
45 | CCCC1=C(C(=O)OCC)C(c2ccccc2)C(C#N)=C(N)O1 (stereo not shown) | 1.41%
46 | COC(=O)Nc1ccccc1C(=O)N1CCC(O)(c2ccc(Cl)cc2)CC1 | 2.48%
47 | COc1cc(-c2nnn(CC(=O)O)n2)cc(OC)c1OC | -3.53%
48 | Cc1cccc(C)c1NC(=O)C(NC(=O)CN1C(=O)c2ccccc2C1=O)c1ccc(O)cc1 (stereo not shown) | -1.45%
49 | Cc1c(O)nc(O)nc1NCc1ccccc1 | 2.22%
50 | Cc1ccc(OCC(=O)Nc2nnc(S(=O)(=O)N3CCC(C)CC3)s2)cc1 | -1.72%
51 | CCOC(=O)N1CCN(C(=O)CSCc2nc(-c3ccccc3C)oc2C)CC1 | -1.05%
52 | Cc1cc(NC(=O)CN(C)Cc2ccccc2)nc2c1c(=O)oc1ccccc12 | 1.22%
53 | COc1ccc(C2CC(=O)N=C(NC(C)=O)N2)cc1 (stereo not shown) | 4.48%
54 | c1ccc(CSc2nc[nH]n2)nc1 | 0.503%
55 | CC1=CC2=NC(=O)/C(=C\c3ccc(OCc4ccccc4C)cc3)C(=N)N2O1 | 3.63%
56 | CC1CC2(NC(=O)NC2=O)C(C)CN1C (stereo not shown) | -0.744%
57 | N#Cc1cc2c(nc1SCC(=O)Nc1ccc(F)cc1)CCCCC2 | -0.68%
58 | COc1ccc(CNS(=O)(=O)c2cc3nc(O)c(O)nc3cc2C)cc1 | 2.88%
59 | CCCCN1CCc2c([nH]c3ccc(C)cc23)C1=O | -7.42%
60 | Cc1nc(N)sc1-c1csc(Nc2ccc(Cl)cn2)n1 | 16.7%
61 | CCOC(=O)c1c(CN2CCN(c3ccccc3)CC2)n(C)c2cc(Br)c(O)cc12 | -2.15%
62 | COc1ccc2c(c1)C1C=CCC1C(c1ccc(Br)cc1)N2 (stereo not shown) | -2.42%
63 | CCOc1cc(C2CC(=O)Nc3c2c(=O)nc(SC)n3C)ccc1OCC(N)=O (stereo not shown) | 3.84%
64 | Cc1ccc(NC(=O)C2CC=CCC2C(=O)O)c(Br)c1 (stereo not shown) | 3.24%
